Laboratory results as given in publication PMC4336329 (PLoS ONE, 2015).
About 14,000 (4.5%) of roughly 310,000 compounds showed an effect of 50% or more. Effects have a minus sign here. The list shows a part of the results.

Target: human ether-à-go-go-related gene (hERG) potassium channel (human, UniProt Q12809)
Assay: primary screen, population patch clamp on CHO cells stably expressing hERG
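Note: peak tail current of the secondary pulse compared with the same well before compound.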

Sequence of human ether-à-go-go-related gene (hERG) potassium channel (Q12809 whole entry, looked up): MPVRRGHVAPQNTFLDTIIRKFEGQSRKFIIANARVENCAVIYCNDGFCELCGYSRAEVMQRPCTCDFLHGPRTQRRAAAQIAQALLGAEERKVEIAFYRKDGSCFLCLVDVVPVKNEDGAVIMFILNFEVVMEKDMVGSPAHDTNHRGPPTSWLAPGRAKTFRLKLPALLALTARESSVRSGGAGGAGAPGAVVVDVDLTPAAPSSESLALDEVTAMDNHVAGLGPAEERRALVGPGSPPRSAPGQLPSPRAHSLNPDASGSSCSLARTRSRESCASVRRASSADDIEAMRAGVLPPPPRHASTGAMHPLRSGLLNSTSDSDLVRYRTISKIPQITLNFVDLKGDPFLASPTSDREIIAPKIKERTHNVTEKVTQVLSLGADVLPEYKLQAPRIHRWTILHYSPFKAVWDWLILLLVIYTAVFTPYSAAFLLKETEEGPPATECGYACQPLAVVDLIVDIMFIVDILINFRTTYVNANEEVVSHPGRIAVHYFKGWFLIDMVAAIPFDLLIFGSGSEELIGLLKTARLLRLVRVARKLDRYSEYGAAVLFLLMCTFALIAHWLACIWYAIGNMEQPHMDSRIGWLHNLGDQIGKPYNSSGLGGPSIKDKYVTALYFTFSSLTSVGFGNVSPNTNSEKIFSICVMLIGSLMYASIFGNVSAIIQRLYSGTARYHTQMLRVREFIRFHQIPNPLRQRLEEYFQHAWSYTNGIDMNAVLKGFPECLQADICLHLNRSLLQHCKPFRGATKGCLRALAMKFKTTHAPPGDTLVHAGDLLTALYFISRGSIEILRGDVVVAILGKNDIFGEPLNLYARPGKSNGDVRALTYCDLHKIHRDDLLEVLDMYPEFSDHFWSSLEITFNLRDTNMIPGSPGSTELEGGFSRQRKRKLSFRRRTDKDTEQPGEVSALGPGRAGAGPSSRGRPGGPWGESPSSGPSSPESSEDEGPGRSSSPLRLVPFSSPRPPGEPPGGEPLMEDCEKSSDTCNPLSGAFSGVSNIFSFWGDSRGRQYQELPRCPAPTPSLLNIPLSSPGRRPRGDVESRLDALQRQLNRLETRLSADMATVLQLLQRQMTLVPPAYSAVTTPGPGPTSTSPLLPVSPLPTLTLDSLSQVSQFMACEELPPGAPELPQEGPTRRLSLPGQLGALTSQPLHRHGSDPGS

Row | Compound | hERG current change (%, negative = inhibition) at 10uM [%]
1 | Cl.O=C(/C=C/c1ccccc1)Nc1ccc(N2CCCCC2)cc1 | 5.7
2 | COc1ccc(C(=O)N/N=c2\oc3ccccc3cc2C(=O)NCc2ccccc2)cc1 | -37
3 | O=C(NNC(=O)c1ccccc1-n1cccc1)c1cccc(Cl)c1 | -2.08
4 | CCCOc1ccc(-c2nc(=S)[nH][nH]2)cc1 | 20.1
5 | CCOc1ccc(C(=O)NC(=S)Nc2ccccc2N2CCCCC2)cc1[N+](=O)[O-] | 11.7
6 | Cc1cccc(-c2csc(NC(=O)c3cnccn3)c2C(=O)OC(C)C)c1 | 9.98
7 | COc1ccc(CC(=O)OCC(=O)Nc2ncc(Cl)cc2Cl)cc1 | -1.19
8 | Cc1ccc(CNC(=O)c2cc3c(=O)n4ccccc4nc3n(Cc3ccco3)c2=N)cc1 | -75.5
9 | COc1ccc(CN2CCCCC2C)cc1OC (stereo not drawn) | -20.1
10 | NC(=O)C1CCN(C(=O)CN2CCN(c3cccc(C(F)(F)F)c3)CC2)CC1 | -2.01
11 | O=C(CSc1nc(=O)n2ccccc2n1)NCc1ccc(F)cc1 | -0.132
12 | Cn1c(NC(=O)c2ccc(C(C)(C)C)cc2)cc(=O)n(C)c1=O | 9.75
13 | Cc1cc(OCC(=O)Nc2ccc(S(=O)(=O)N3CCN(C)CC3)cc2)ccc1Cl | -25.1
14 | COc1ccc(-c2ncc3ccccn23)cc1 | -5.24
15 | Cc1c(C2(c3c(C)n(C)n(-c4ccccc4)c3=O)C(=O)Nc3ccc(F)cc32)c(=O)n(-c2ccccc2)n1C | 17.5
16 | COc1ccccc1OCCNC(=O)Cc1ccc(Cl)c(Cl)c1 | -20.6
17 | COC(=O)c1c(NC(=O)COc2ccc(Cl)cc2Cl)sc2c1CC(C)(C)NC2(C)C | 14.4
18 | CCc1nnc(NC(=O)CSc2nnc(-c3ccc(S(=O)(=O)N4CCCC4)cc3)n2CC)s1 | 8.86
19 | COCCCNCCC(CCC(C)C)c1ccc2c(c1)OCO2.Cl (stereo not drawn) | -80.2
20 | c1coc(-c2nnc3n2C2(CCCC2)Cc2ccccc2-3)c1 | 10.2
21 | Cc1cccc(C)c1NC(=O)CSc1nnc(C2CCCCC2)o1 | 0.666
22 | COc1ccc(C(=O)N2CCC(C(=O)N3CCN(c4ccccc4)CC3)CC2)cc1 | -48.7
23 | O=C(NNC(=O)C1CCN(Cc2ccc(Cl)c(Cl)c2)CC1)c1cccs1 | 6.67
24 | CCCCOC(=O)c1ccc(NC(=O)c2ccccc2OC)cc1 | -2.15
25 | COc1ccc(CCNC(=O)CNS(=O)(=O)c2ccc(F)c(Cl)c2)cc1OC | 5.14
26 | Cc1ccccc1Nc1nc(N)nc(COC(=O)CC2CC3CCC2C3)n1 (stereo not drawn) | 1.44
27 | CC(C)CNC(=O)c1nn(Cc2ccccc2)c(=O)c2ccccc12 | -16

Row | Compound | hERG current change (%, negative = inhibition) at 10uM [%]
28 | CCn1nc(C)c(Br)c1-c1nc(-c2ccc(C)cc2)no1 | 18.2
29 | c1ccc(Cn2nnnc2C(c2cccnc2)N2CCN(C3CCCCC3)CC2)cc1 (stereo not drawn) | -24.9
30 | COc1ccc(CN2C(=O)NC(=O)/C(=C/c3ccc([N+](=O)[O-])s3)C2=O)cc1 | 17.3
31 | Cc1ccc(C(=O)NC(=S)NNC(=O)COc2ccccc2C)cc1 | 15.3
32 | CCCCc1nc2ccccc2c(NC(=O)CN2CCCC2)c1CCC.O=C(O)C(=O)O | -22.5
33 | O=C1c2ccccc2C(Nc2ccc(S(=O)(=O)N3CCOCC3)cc2)N1c1ccccn1 (stereo not drawn) | -19.5
34 | CN(CCc1cn[nH]c1)Cc1nc(C(c2ccccc2)c2ccccc2)no1 | -38.5
35 | N#CCSc1nc2sccc2c(=O)n1-c1ccccc1 | 12.5
36 | O=C(CN(c1cccc(Cl)c1)S(=O)(=O)c1ccccc1)NN=C1CCCC1 | -9.24
37 | O=C(COC(=O)c1ccc(F)c(S(=O)(=O)N2CCOCC2)c1)Nc1ccc2[nH]c(=O)[nH]c2c1 | 27.2
38 | COC(=O)c1sc(S(=O)(=O)N2CCC(C)CC2)c(C(=O)OC)c1C | -9.48
39 | CCOc1ccccc1NC(=O)c1ccc(NC(=O)C2CCCO2)cc1 (stereo not drawn) | 3.08
40 | O=C(CN1C(=O)NC2(CCCC2)C1=O)Nc1ccc(F)c(Cl)c1 | 0.502
41 | CN1CCN(c2nc(-c3cccs3)cc(C(F)(F)F)n2)CC1 | -48.8
42 | COCCN1C(=O)N[C@@H](c2cccc(C(F)(F)F)c2)[C@H](C(C)=O)[C@H]1C | 4.22
43 | CCOC(=O)C1CCCN(C(=O)c2cc3ccc(OC)cc3[nH]2)C1 (stereo not drawn) | 6.4
44 | c1coc(-c2nnc(NC3=NCCC3)o2)c1 | 8.95
45 | CCN(CC)C(=O)N1c2ccccc2CC(N(CC)CC)c2ccccc21 (stereo not drawn) | -24.4
46 | Cc1cc(C)c(NC(=O)CN2CCN3CCCC3C2)c(C)c1.O=C(O)/C=C/C(=O)O (stereo not drawn) | -7.01
47 | Nc1nc(Cl)cc(Nc2ccccc2Cl)n1 | 11.7
48 | O=C(NCCc1ccccc1)c1ccc(CS(=O)(=O)Cc2ccc(F)cc2)o1 | 12.8
49 | Cc1ccc(Nc2nc(-c3cccnc3)nc3ccccc23)cc1 | -3.36
50 | Cc1cccc(NC(=O)CNC(=O)c2sc3ccccc3c2Cl)n1 | -6.1
51 | COc1c(C)cc(C(=O)C2CCCN(C(=O)c3cc(C)nc(C)n3)C2)cc1C (stereo not drawn) | 7.89
52 | COc1ccc(NC(=O)[C@@H]2CC=C[C@@H]3CCN(Cc4ccc(Cl)c(Cl)c4)C(=O)[C@@H]32)cc1 | -5.33
53 | CC1=C(C(=O)OC(C)C)C(c2ccc(Cl)cc2)n2c(s/c(=C\c3ccc(OCC(=O)O)cc3)c2=O)=N1 (stereo not drawn) | 21.7
54 | COc1ccc(C(=O)NCc2nnc(SCC(=O)Nc3cc(C)cc(C)c3)o2)cc1OC | -25.5
